Source: the RNAGym collection of RNA variant scans (doi:10.7554/elife.90254)
The source gives no read counts; variants with many changes may rest on few reads.

B1: LINE1-mini (parent)
chain: GGCAGAGCUCAACACAGCGUGGCAAAGUGGCUGUGGCUAGACUGCC

Variants of: B1
Experiment: self-cleavage, relative activity (ratio to wild type); higher = more cleavage; in vitro, sequencing; the parent is a self-cleaving ribozyme

Row | Variant | self-cleavage
1 | A6G U32A A39G | 0.03
2 | A6G G36C C37G G40U | 0.21
3 | A6U A14G G22C | 0.06
4 | A6U A11U U34G | 0.1
5 | A6U A16U A25C | 0.07
6 | A6U A24G C46A | 0.9
7 | A6G G21U C42U | 0.02
8 | A6G G21U C45U | 0.23
9 | A6G C13A G29U | 0.1
10 | A6G G7C A14U C37U C42A G44A | 0.11
11 | A6G C13U G40A | 0.28
12 | A6G C13U A26C G36U C45A | 0.89
13 | A6G U20A G36U C37G A39G | 0.01
14 | A6G G7U G27A C45G | 0.03
15 | A6G G17A A41G | 0.03
16 | A6G C31U C37A | 0.13
17 | A6G C23U A24C G40C | 0.08
18 | A6G C15U A39C | 0.21
19 | A6G G17C G21U G35C G44C | 0.02
20 | A6G G21U U32C | 0.05
21 | A6G C13A U28A U38G | 0.01
22 | A6G G30U C45A | 0.02
23 | A6U A12G U28C | 0.02
24 | A6G U28C U34G G36U | 0.02

Row | Variant | self-cleavage
25 | A6U A12U A14U G35U | 0.11
26 | A6U A25C U28G A39C G44U | 0.07
27 | A6G C18A G22U C23U G33A | 0.02
28 | A6G C31U A41C | 0.02
29 | A6U A16G G19C G27A U28G G35C C45G | 0.03
30 | A6G G7C C13A A25U G30U G36A | 0.09
31 | A6G G7A A14G C31U | 0.05
32 | A6G C23G G33C C37U | 0.02
33 | A6G G7C C13U C23A G36U A39U | 0.08
34 | A6G C13G G17C C31U U32C | 0.03
35 | A6G G17C G35U | 0.05
36 | A6U A14C A39C | 0.06
37 | A6G C13G A16G G21U G27A G29U | 0.01
38 | A6G U20G G21A G30C | 0.06
39 | A6G U34C A41U | 0.25
40 | A6G G29C U38C | 0
41 | A6U A16C G17U G21A G22C | 0.2
42 | A6G G27A G35U | 0.02
43 | A6U A14U A24U | 0.13
44 | A6G C15A C45U | 0.08
45 | A6U A11C A14G C42G | 0.01
46 | A6G G7U U9C U38G | 0.02
47 | A6G C37G C46A | 0.01
48 | A6G G19C G36C | 0.21

Row | Variant | self-cleavage
49 | A6U A14C C18U | 0.09
50 | A6G C23A U28A | 0.27
51 | A6G C42G C45A C46A | 0.01
52 | A6U A24U C37A | 0.06
53 | A6U A14C U34C A39G | 0.01
54 | A6G G21A G30U | 0.11
55 | A6G U28G G35A C42A C45G | 0.03
56 | A6G U9A G17C G21U G33A | 0.09
57 | A6U A16C G17A C18G | 0
58 | A6G G22C C23U G27U | 0.05
59 | A6G G17A G21U G36U C37A | 0.05
60 | A6U A16U G33C | 0.08
61 | A6G C15A G36U | 0.04
62 | A6U A14U C23A G30A C31U C37A A41U C45A | 0.13
63 | A6U A26C G27A | 0.04
64 | A6G C13U A14U | 0.03
65 | A6G U9C G36U G44C C45G | 0
66 | A6G G19U A24C C31U | 0.06
67 | A6G G33C G36C A39U C45G | 0.01
68 | A6G G19A C45G | 0.16
69 | A6U A14U G30U G40U | 0.1
70 | A6G C13U G17C A26U | 0.07
71 | A6G U9A G17U A26U G35A G36C | 0.01
72 | A6G G7A C13A G30U C37G | 0.04

Row | Variant | self-cleavage
73 | A6G U9A C13U C45G | 0.19
74 | A6G G7A C10A C23G | 0.02
75 | A6G U34A A39G | 0.04
76 | A6G C13U G36C C42G | 0.02
77 | A6G G7C A12G | 0.01
78 | A6U A16U G19U | 0.09
79 | A6G C23G G27A G36C | 0.03
80 | A6G C13A U20A | 0.22
81 | A6G G7U C18U G21A C46G | 0.03
82 | A6G U9G U20A U28A U32C | 0.1
83 | A6G U9A G27U G30C C37U | 0.03
84 | A6G C13U A16G G21A U34A C42A | 0.01
85 | A6G G36U C37G | 0
86 | A6G G36U C37A | 0.03
87 | A6G G21C C23G G36A C46U | 0.07
88 | A6G G33A U34C C45U C46G | 0.01
89 | A6G U9G A39U G40C | 0.02
90 | A6G U28C U43A | 0.04
91 | A6G C13U U34A G40A C46A | 0.06
92 | A6G U28A G36A | 0.03
93 | A6G U9G C10U | 0.02
94 | A6G G19U G29U C31U U34C | 0.02
95 | A6G G29A C46U | 0.17
96 | A6G U9A G17U C37U | 0.05

Row | Variant | self-cleavage
97 | A6G G21U C23A G40U | 0.01
98 | A6G U9A U43G C46U | 0.43
99 | A6G C13G C15G | 0.01
100 | A6G C18U G35U C42U | 0.1
101 | A6G C42G G44U C45G | 0
102 | A6U A16C U20A U34G | 0.02
103 | A6G U28A G35A | 0.15
104 | A6U C8A A12C A14G G22U C23A G36A C46A | 0.19
105 | A6G C18G U32G G36A A41C C42U | 0.01
106 | A6U A11C C13U G19A | 0.01
107 | A6G G21U A26U | 0.2
108 | A6G G21U A26C | 0.2
109 | A6G U32G G40C | 0.07
110 | A6G G17C G22U C46U | 0.11
111 | A6G G21U A24C G33C | 0.02
112 | A6G G17A G21U C23U C31U C37U | 0.04
113 | A6G U9A A14U A25U G27C G35A C45G | 0.2
114 | A6G G7U C10U U34A G36U C37A | 0.02
115 | A6U A24G G35U | 0.1
116 | A6G C18A G19C | 0.03
117 | A6G G30A G44U | 0.04
118 | A6U A12U C37G G44C C45A | 0.03
119 | A6G G7A G27C | 0.12
120 | A6G G36A C42U U43G G44C | 0.07

Row | Variant | self-cleavage
121 | A6G G7C C10A C13U A14U A16G A41C | 0.01
122 | A6G G7C G36U G44U | 0.08
123 | A6G C13U C23A U28A G44A C46A | 0.23
124 | A6G G7A C15U C23A G27A G33U G35C A41G | 0.52
125 | A6G G7U C10A C13A A14U C15A C23U | 0.03
126 | A6U A12C G40C A41C | 0.09
127 | A6G U34G A41U U43C | 0.02
128 | A6G C42U C46U | 0.05
129 | A6G G29A A39C C46A | 0.02
130 | A6G G17A G19A C46A | 0
131 | A6U A12C G29C C31A | 0.01
132 | A6G U20C G22U A25U G30U C37A C46U | 0.02
133 | A6U A14G G27C | 0.04
134 | A6G G19A U32A A39G | 0.01
135 | A6G C15G G40C | 0.01
136 | A6U A11U G17C C46U | 0.05
137 | A6G C15U A26U | 0.02
138 | A6U A14G U34A | 0.21
139 | A6G C37A A39G | 0.02
140 | A6G G22U U38C | 0.04
141 | A6G C31A A41C C45G | 0.01
142 | A6U A16G G22U U43C | 0.01
143 | A6G C15A C18A A26U | 0.04
144 | A6U A12C G35C | 0.05

Row | Variant | self-cleavage
145 | A6G G33U A39C | 0.06
146 | A6U A26G U32C C37U A39C | 0.12
147 | A6U A11G A14U A41C | 0.01
148 | A6G G7U U28A C45G | 0.01
149 | A6G U34C A41G U43G | 0.04
150 | A6G G19C A26C | 0.03
151 | A6G U9A C31G | 0.02
152 | A6U A12U A39U | 0.12
153 | A6G C23U A39C C45G | 0.04
154 | A6U A16C G27C U28C | 0.22
155 | A6G U34A C42A | 0.04
156 | A6G U9C C23G C31U U43G | 0
157 | A6G U32C G36A C37A | 0.02
158 | A6G C31A C37A | 0.02
159 | A6G U20G G40C | 0
160 | A6U A11C C18G G21A U43C C45U C46G | 0.02
161 | A6U A12G G17C G22U A39C | 0.04
162 | A6U A14G U32G G40C | 0.17
163 | A6G G21C G29A U38A A41U C46A | 0.01
164 | A6U A16C G33U G40A C46A | 0
165 | A6U A12U C13A C23U G27A G33C G44A | 0.09
166 | A6U A11C A24G G33U | 0
167 | A6G U9C A26G G36A | 0.01
